Reference: publication PMC9834212
No constants are given. Whether binding was seen depends on the method and setting. In cells and extracts the contact can be indirect. Some entries that bind do so weakly or less than the wild type. Where a sequence is shown, tags or fusion partners need not be part of it. One block for each binder: values may come before it.

Amino acid sequences for entries named in this document (tags omitted).
UniProt P31321: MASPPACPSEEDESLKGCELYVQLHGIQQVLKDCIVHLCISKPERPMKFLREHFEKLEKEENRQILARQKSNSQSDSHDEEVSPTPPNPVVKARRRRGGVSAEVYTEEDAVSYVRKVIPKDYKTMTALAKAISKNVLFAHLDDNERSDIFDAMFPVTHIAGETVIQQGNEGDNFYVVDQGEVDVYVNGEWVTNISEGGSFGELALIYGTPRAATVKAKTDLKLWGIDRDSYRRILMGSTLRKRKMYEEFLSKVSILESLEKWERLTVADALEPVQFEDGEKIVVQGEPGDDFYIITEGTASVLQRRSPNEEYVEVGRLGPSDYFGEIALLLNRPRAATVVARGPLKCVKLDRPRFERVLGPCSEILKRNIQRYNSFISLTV
UniProt P31323: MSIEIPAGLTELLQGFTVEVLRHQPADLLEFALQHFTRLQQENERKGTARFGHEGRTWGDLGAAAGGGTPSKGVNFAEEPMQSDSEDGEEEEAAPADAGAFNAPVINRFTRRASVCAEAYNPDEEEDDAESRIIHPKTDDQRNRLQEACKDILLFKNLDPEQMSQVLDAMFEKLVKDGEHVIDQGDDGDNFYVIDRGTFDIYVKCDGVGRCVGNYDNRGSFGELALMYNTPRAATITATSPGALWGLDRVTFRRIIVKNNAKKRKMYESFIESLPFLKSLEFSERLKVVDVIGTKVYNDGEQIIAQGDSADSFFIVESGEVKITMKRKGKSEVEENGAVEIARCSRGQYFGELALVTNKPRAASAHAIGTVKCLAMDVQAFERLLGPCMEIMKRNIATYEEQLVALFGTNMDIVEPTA
UniProt P13861: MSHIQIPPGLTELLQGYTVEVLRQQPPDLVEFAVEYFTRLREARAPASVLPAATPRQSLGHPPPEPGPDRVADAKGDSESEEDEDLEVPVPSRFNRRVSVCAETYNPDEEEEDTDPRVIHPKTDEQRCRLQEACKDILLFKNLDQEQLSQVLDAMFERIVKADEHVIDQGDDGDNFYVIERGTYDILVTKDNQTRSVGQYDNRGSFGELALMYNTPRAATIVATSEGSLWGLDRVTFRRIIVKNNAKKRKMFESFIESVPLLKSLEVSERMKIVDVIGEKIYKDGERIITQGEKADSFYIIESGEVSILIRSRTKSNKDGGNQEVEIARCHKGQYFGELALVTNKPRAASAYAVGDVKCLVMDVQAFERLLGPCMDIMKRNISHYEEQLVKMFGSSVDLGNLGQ
UniProt P10644: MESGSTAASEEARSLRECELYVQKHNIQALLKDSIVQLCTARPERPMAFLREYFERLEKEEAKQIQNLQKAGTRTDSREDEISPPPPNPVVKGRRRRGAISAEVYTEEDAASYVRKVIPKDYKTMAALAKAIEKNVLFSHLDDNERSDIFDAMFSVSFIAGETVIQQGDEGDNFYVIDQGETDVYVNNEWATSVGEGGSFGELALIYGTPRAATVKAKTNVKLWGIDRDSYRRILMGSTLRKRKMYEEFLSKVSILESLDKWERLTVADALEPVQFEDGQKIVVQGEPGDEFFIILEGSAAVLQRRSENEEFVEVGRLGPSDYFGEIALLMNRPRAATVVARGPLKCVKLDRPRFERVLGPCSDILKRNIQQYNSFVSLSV

Experiments:
Test in all cases: co-IP; PKA regulatory subunit-Flag and HA-ZNF185 (or its deletion mutant, or HA-mZfp185) overexpressed in HEK293T cells; lysates on anti-FLAG M2 affinity gel for 1 h at 4 °C; blots
[1] = target: PKA RIβ-Flag (UniProt P31321)
[2] = target: PKA RIIβ-Flag (UniProt P31323)
[3] = target: PKA RIIα-Flag (UniProt P13861)
[4] = target: PKA RIα-Flag (UniProt P10644)

binding [1]: binds
binding [2]: binds
binding [3]: binds
binding [4]: binds
B1: HA-mZfp185 (protein, UniProt Q62394 1-352)
chain: MTTEDYKKLAPYNIRRSSISGTEEEEVPFTPDEQKRRSQAALGVLRKTAPREHSYVLSAAKKTTSSPTQELQSPFLAKRVDVVDEDVLPEKNQEPPALARPDSGLSSSTTEKIAHRQITPPTAELHLVAPDLEALSTPDSCEENNAAPKIIKEIPGTLQDGQSDPTVASQQLADLSILEPLGSPSGAEQQIKAEDCTNMLMSPSSCMVTVTVSDTSEQSQLCVPGVSSKVDSSSTIKGILFVKEYMNTSEVSSGKPVSSHCDSPSSIEDSLDLAKKPPHEGTPSERPTEGVCTYCSHEIQDCPKITLEHLGICCHEYCFKCGICNKPMGDLLDQIFIHRDTIHCGKCYEKLF

binding [2]: no binding
binding [3]: no binding
B2: HA-ZNF185 deletion mutant (Δaa 534–605) (protein, UniProt O15231-1)
chain: MSISALGGRTKGKPLPPGEEERNNVLKQMKVRTTLKGDKSWITKQDESEGRTIELPSGRSRATSFSSAGEVPKPRPPSTRAPTGYIIRGVFTKPIDSSSQPQQQFPKANGTPKSAASLVRTANAGPPRPSSSGYKMTTEDYKKLAPYNIRRSSTSGDTEEEEEEEVVPFSSDEQKRRSEAASGVLRRTAPREHSYVLSAAKKSTGPTQETQAPFIAKRVEVVEEDGPSEKSQDPPALARSTPGSNSADGGRTKASRAIWIECLPSMPSPAGSQELSSRGEEIVRLQILTPRAGLRLVAPDVEGMRSSPGNKDKEAPCSRELQRDLAGEEAFRAPNTDAARSSAQLSDGNVGSGATGSRPEGLAAVDIGSERGSSSATSVSAVPADRKSNSTAAQEDAKADPKGALADYEGKDVATRVGEAWQERPGAPRGGQGDPAVPAQQPADPSTPERQSSPSGSEQLVRRESCGSSVLTDFEGKDVATKVGEAWQDRPGAPRGGQGDPAVPTQQPADPSTPEQQNSPSGSEQFVRRESCTSFAMEKKPPCGSTPYSERTTGGICTYCNREIRDCPKITLEHLGICCHEYCFKCGICSKPMGDLLDQIFIHRDTIHCGKCYEKLF
